Measured values published in PubChem BioAssay AID2100 (National Center for Advancing Translational Sciences (NCATS), 2009).
In all, about 300,000 compounds went through this assay and about 1,200 (0.4%) were called active. The shares of active, inactive and inconclusive entries below differ from those in the screen. Calls follow the shape of the dose curve; as a rule, active = well fitted inhibition curve with a large enough effect; inconclusive = small, poorly fitted or top-dose-only effect, or another doubt; inactive = no such curve, though single readings can be large or run the other way. Where the call is inconclusive, the potency comes from a doubtful curve fit.

molecular target: Lysosomal alpha-glucosidase (Homo sapiens) (UniProt P10253); test: qHTS Assay for Inhibitors and Activators of Human alpha-Glucosidase Cleavage of Glycogen; details: recombinant GAA, glycogen substrate, Amplex Red glucose oxidase fluorescence; activity change, negative = inhibition: at 76.4 µM (top of the series) unless noted;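 as to activity change, negative = inhibition: 0% = full enzyme reaction and -100% = no-enzyme basal signal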
Outline: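 Natural-substrate format: glycogen cleavage by 4 nM human enzyme, glucose read by Amplex Red coupling (Ex 573, Em 610 nm). Normalized to enzyme and no-enzyme controls.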
Potency is read from the fitted curve at half-maximal effect.

Compound | Potency | activity change, negative = inhibition
COc1cc(/C=N/Nc2ccc(Cl)nn2)cc(OC)c1O | inconclusive: 35.5 µM [inhibitor, partial curve] | 
CCCc1[nH]nc2c1C(c1ccc(OC)c(CSC3=NCCS3)c1)C(C#N)=C(N)O2 (stereo unspecified) | inactive | 
Cc1cc(NC(=O)CSCC(=O)N(c2ccc(F)cc2)C(C(=O)NC2CCCCC2)c2ccc(O)c(O)c2)no1 (stereo unspecified) | inconclusive: 3.52 µM [inhibitor, full curve] | 
COc1ccccc1N1CCN(C(=O)Cc2cccs2)CC1 | inactive | 
Cc1ccc(Cl)cc1Nc1nc(-c2sc(NC(=O)c3ccccc3)nc2C)cs1 | inconclusive: 39.5 µM [inhibitor, single point] | 
CC1(C)C(c2cccs2)=[N+]([O-])C2(CCCCC/C2=N\NC(N)=S)N1O (stereo unspecified) | active: 17.6 µM | 
COc1ccc(C2CC(c3ccc(Br)cc3)=NN2C(=S)Nc2ccccc2)cc1 (stereo unspecified) | inconclusive: 44.7 µM [inhibitor, partial curve] | 
Cc1ccc(C(=O)NC(=S)NNS(=O)(=O)c2ccccc2)cc1 | inconclusive: 22.2 µM [inhibitor, single point] | 
C/C(CC(=O)Nc1ccc(N(C)C)cc1)=N\NC(=O)c1ccccn1 | inconclusive: 9.92 µM [inhibitor, partial curve] | 
CN1c2cccc3cccc(c23)N(C)C1(C)C | inconclusive: 35.5 µM [inhibitor, partial curve, poor fit] | 
CC(C)(C)C(=O)NC(=S)NNC(=O)c1ccc(-c2ccccc2)cc1 | inconclusive: 28.2 µM [inhibitor, single point] | 
COc1ccc(C2=NN(C(C#N)c3ccc(OC)cc3)C(c3ccccc3)C2)cc1 (stereo unspecified) | inconclusive: 39.8 µM [activator, single point] | 
C/C(=N\N1CCN(Cc2ccccc2Cl)CC1)c1ccc(F)cc1 | inconclusive: 35.5 µM [inhibitor, partial curve] | 
CC1=NNC(=O)C1CCC(=O)N/N=C/c1ccc(Cl)cc1Cl (stereo unspecified) | inconclusive: 28.2 µM [inhibitor, partial curve] | 
NNC(=O)c1cc2sccc2s1 | active: 24.9 µM | 
COc1cc(-c2nc(=S)[nH][nH]2)cc(OC)c1OC | inconclusive: 39.5 µM [inhibitor, single point] | 
c1ccc2c(N3CCCCC3)nc(N3CCCCC3)nc2c1 |  | inconclusive: 33% [activator]
CCOc1ccccc1C(=O)Nc1ccccc1O | inconclusive: 28.2 µM [inhibitor, partial curve] | 
CCOc1cc(/C=C2\C(=O)NN(c3ccccc3)C2=O)cc([N+](=O)[O-])c1O | inconclusive: 11.1 µM [inhibitor, partial curve] | 
CCCn1c(SCC(O)c2ccccc2)nc2ccccc21 (stereo unspecified) | inactive | 
CN(C)c1ccc2c(c1)OC(N)=C(C#N)C2c1cccc(F)c1 (stereo unspecified) | inconclusive: 31.4 µM [inhibitor, partial curve] | 
Nc1[nH]nc2nc(NCc3ccccc3)c3c(c12)CCN(Cc1ccccc1)C3 | inconclusive: 17.6 µM [inhibitor, partial curve] | 
O=c1c2c3c(sc2n(Cc2cc(=O)n4ccccc4n2)c(=O)n1-c1ccc(Cl)cc1)CCC3 | inactive | 
O=c1[nH]cc(F)c(=O)[nH]1 | inactive | 

Compound | Potency | activity change, negative = inhibition
COc1ccc(/C(C)=N/NC(=S)Nc2cc(C)ccc2C)cc1 | inconclusive: 12.6 µM [inhibitor, partial curve] | 
C(=N\Nc1nc2ccccc2s1)/c1ccco1 | inconclusive: 15.8 µM [inhibitor, partial curve] | 
Cc1coc2cc3oc(=O)c(CC(=O)NCc4ccccc4)c(C)c3cc12 | inactive | 
COc1cc(/C=C/C(=O)OCC(=O)Nc2ccc3c(c2)OCCO3)ccc1O | inconclusive: 14.1 µM [inhibitor, partial curve] | 
COc1cccc(-c2cnc(NCc3ccccc3Cl)n2C)c1 | inconclusive: 28.2 µM [inhibitor, partial curve] | 
CCNC(=O)n1nccc1C(C)Oc1ccc(Cl)cc1 (stereo unspecified) | inconclusive: 7.94 µM [inhibitor, single point] | 
CCOC(=O)C1=C(NC#N)OC(C)=C(C)C1c1ccc(O)cc1 (stereo unspecified) | inconclusive: 50.1 µM [inhibitor, single point] | 
FC(F)(F)c1ccc(/C=N/n2c(COc3ccccc3)n[nH]c2=S)cc1 | inconclusive: 25.1 µM [inhibitor, partial curve] | 
Cc1ccc(OCc2n[nH]c(=S)n2C2CCCCC2)cc1 | inconclusive: 39.5 µM [inhibitor, single point] | 
CC1(C)CC(=O)C/C(=N\NC(=S)NCc2ccccc2)C1 | inconclusive: 7.94 µM [inhibitor, full curve] | 
CCc1ccc2c(c1)C(NC(C)=O)C(=O)N2CC (stereo unspecified) | inconclusive: 28.2 µM [inhibitor, partial curve] | 
Cc1ccc(-c2nc3c(C)cccn3c2Nc2ccccc2C)s1 | inconclusive: 8.91 µM [inhibitor, partial curve] | 
S=C(Nc1ccc(Nc2ccccc2)cc1)N1CCN(c2ncccn2)CC1 | active: 8.91 µM | 
COc1ccc(N2CCN(c3n[nH]c(N)n3)CC2)cc1 | inconclusive: 12.6 µM [inhibitor, partial curve] | 
Cc1ccc(CNC(=O)C(=O)NCC(c2cccnc2)N2CCN(c3ccc(F)cc3)CC2)cc1 (stereo unspecified) | inactive | 
COc1cc(C2C(C#N)=C(N)Oc3cc(N(C)C)ccc32)cc2c1OCO2 (stereo unspecified) | inconclusive: 35.5 µM [inhibitor, single point] | 
CC1(NC(=S)Nc2ccc(NC(=S)NC3(C)CCS(=O)(=O)C3)cc2)CCS(=O)(=O)C1 (stereo unspecified) | inconclusive: 12.5 µM [inhibitor, partial curve] | 
Nc1ccc2nc(-c3cc(Cl)c(N)c(Cl)c3)[nH]c2c1 | active: 12.5 µM | 
CC(C)(C)c1ccc(C(=O)NNc2ccc(F)cc2F)cc1 | inconclusive: 20 µM [inhibitor, partial curve] | 
O=C1OCC(CO)(CO)N=C1NNc1cc(Cl)ccc1Cl | active: 8.91 µM | 
COc1ccc(-n2nc3c(N)n[nH]c3cc2=O)cc1 | inconclusive: 31.6 µM [inhibitor, partial curve] | 
O=C(O)c1cc(NCc2ccccc2C(F)(F)F)ccc1N1CCOCC1 | inconclusive: 17.6 µM [inhibitor, partial curve] | 
O=C(O)CSc1cc(NS(=O)(=O)c2ccc(Br)cc2)c2ccccc2c1O | inactive | 
Cc1cccc(CNC(=O)CCCn2c(=O)c3cccn3c3ccc(F)cc32)c1 | inactive | 

Compound | Potency | activity change, negative = inhibition
CC(C)(C)c1ccc(-n2ncc3c2CCCC3NC(=O)CCCn2cncn2)cc1 (stereo unspecified) | inconclusive: 44.7 µM [inhibitor, partial curve] | 
COc1ccc(-c2cn3cc(C(=O)NN)ccc3n2)cc1 | inconclusive: 14.1 µM [inhibitor, partial curve] | 
COc1ccc(-c2cc(=Nc3c(C)n(C)n(-c4ccccc4)c3=O)c3ccccc3o2)cc1 | inconclusive: 35.5 µM [inhibitor, partial curve] | 
Cc1ccc(-c2cc(C(=O)Oc3ccccc3)c3cc(C)ccc3n2)cc1 | inactive | 
Fc1ccccc1Cn1c(-c2ccccc2)nc2ccccc21 | inconclusive: 11.2 µM [inhibitor, single point] | 
CC1CCCC(C)N1C(=O)CSc1nnc(COc2cccc3cccnc23)o1 (stereo unspecified) | inactive | 
C/C(=C\C(=O)c1ccccc1)NNc1nc2ccccc2s1 | inconclusive: 22.4 µM [inhibitor, partial curve] | 
O=c1[nH]c(-[n+]2ccccc2)c(/C=N/NC([S-])=Nc2ccccc2)s1 | inactive | 
O=c1cc(CO)oc(C(Nc2ccccn2)c2ccc(F)cc2)c1O (stereo unspecified) | inconclusive: 11.1 µM [inhibitor, partial curve] | 
COc1cc(/C=C/CN2CCN(CCC(C)C)C(CCO)C2)ccc1O (stereo unspecified) | inconclusive: 12.6 µM [inhibitor, partial curve] | 
COc1ccc(/C=N/Nc2cc(C)nc(N3CCOCC3)n2)c(OC)c1 | inactive | 
CCCc1nnc2c(N(C)S(=O)(=O)c3ccccc3)nc3ccccc3n12 | inactive | 
COc1cc2c(cc1O)CC[C@@H]1[C@@H]2CC[C@]2(C)[C@@H](O)CC[C@@H]12 | inconclusive: 39.5 µM [inhibitor, single point] | 
Cc1ccc(Nc2c(-c3ccc(O)cc3)nc3cccc(C)n23)cc1 | inconclusive: 3.16 µM [inhibitor, full curve] | 
Cc1c(/C=N/Nc2ccc(C(=O)O)cc2)c2ccccc2n1C | inconclusive: 31.6 µM [inhibitor, single point] | 
CCCOc1ccc(C(=O)N(Cc2ccc(N(C)C)cc2)CC2CCCO2)cc1 (stereo unspecified) | inconclusive: 31.6 µM [inhibitor, partial curve] | 
C=C(C)CNC(=S)N/N=C(\C)c1cccc(NC(C)=O)c1 | inconclusive: 24.9 µM [inhibitor, single point] | 
COc1cc(C(=O)NC(=S)Nc2ccc(NC(=O)c3ccco3)cc2)cc(OC)c1OC | inconclusive: 50.1 µM [inhibitor, single point] | 
CCNC(=S)NNC(=S)NCc1ccccc1 | inconclusive: 3.52 µM [inhibitor, single point] | 
O=C1C2C3C=CC(CC3)C2C(=O)N1/N=C/c1ccc(O)c(O)c1 (stereo unspecified) | active: 7.08 µM | 
Oc1cnn(-c2ccccc2)c1 | active: 19.8 µM | 
O=C(NCc1ccc(F)cc1)c1ccc2c(O)c(S(=O)(=O)c3ccccc3)c(=O)[nH]c2c1 | inactive | 
CCCCn1c(NCc2ccc(OC)cc2O)nc2ccccc21 | inconclusive: 15.8 µM [inhibitor, partial curve] | 
